Measurements from the RNAGym collection of RNA variant scans (doi:10.1101/gad.245936.114).
Variants at the background level are over-represented here.

B1: tRNA (parent)
chain: CUCUCGGUAGCCAAGUUGGUUUAAGGCGCAAGACUUUAAUUUAUCACUACGAAAUCUUGAGAUCGGGCGUUCGACUCGCCCCCGGGAGAUUUUUUCCUCGAGCAA

Variants of: B1
Assay: nonsense suppression (GFP-seq) (ratio to wild type); higher = more function; SUP4oc tRNA, yeast GFP reporter sort-seq
Summary of the method: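 Raffinose/galactose medium with 80 mg/L adenine was used to grow yeast carrying genome-integrated tRNA variants (~3% random-mutation library), RFP, and a galactose-driven GFP ochre reporter. Cells went into GFP/RFP bins, which were Illumina-sequenced, and variants with ≥100 reads and ≥30 cells were scored. Nonsense suppression (GFPSEQ) is the per-bin median GFP/RFP weighted by estimated cell share and expressed relative to the unmutated parent tRNA.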

Nonsense suppression, ≤ 0.026:
CUCUCGGUAGCCAAGUUGGUUUAAGGGGCUAGACUUUAAUUUAUCACUACGAAAUCUUGAGCUCGGGCGUUGGACUCGACCCCGGGAGAUUUUUUCCUCGAGCAA [C27G A30U A62C C72G C79A]
CUCUCGGUAGCCAAGUUGGUUUAAGGGGCUAGACUUUAAUUUAUCACUACGAAAUCUUGACAUCGGGCGUUCGACUCGCCCCCGGGAGUUUUUUUCCUCGAGCAA [C27G A30U G61C A89U]
CUCUCGGUAGCCAAGUUGGUUUAAGGGGCAGGACUUUAAUUUAUCACUACGAAAUCUUGAGAUCGGGCGUUCGACUCGCCCCCGGGAGAUUUUUUCCUCGAGCAA [C27G A31G]
CUCUCGGUAGCCAAGUUGGUUUAAGGGGCAGGACUUUAAUUUAUCACUACGAAAUCUUGAGAUCGGGCGGUCGACUCGCCCCCGGGAGAUUUUUUCCUCGAGCAA [C27G A31G U70G]
CUCUCGGUAGCCAAGUUGGUUUAAGGGGCAUGACUUUAAUUUAUCACUACGAAAUCUUGAGAUCGGGCGUUCGACUCGCCCCCGGGAUAUUUUUUCCUCGAGCAA [C27G A31U G88U]
CUCUCGGUAGCCAAGUUGGUUUAAGGGGCAAGUCUUUAAUUUAUCACUACGAAAUCUUGAGAUCGGGCGUUCGACUCGCCCCCGGGAGAUUUUUUCCUCGAGCAA [C27G A33U]
CUCUCGGUAGCCAAGUUGGUUUAAGGGGCAAGUCUUUAAUUUAUCACUACGAAAUCUUGAGAUCGGGAGUUCGACUCGCCCCCGGGAGAUUUUUUCCUCGAGCAA [C27G A33U C68A]
CUCUCGGUAGCCAAGUUGGUUUAAGGGGCAAGUCUUUAAUUUAUCACUACGAAAUCUUGAGAUCGGACGUUCGACUCGCCCCUGGGAGAUUUUUUCCUCGAGCAA [C27G A33U G67A C83U]
CUCUCGGUAGCCAAGUUGGUUUAAGGGGCAAGACUUUAAUUUAUCACUACGAAAUCUUGCGAUCGGGCGUUCGACUCGCCCCCGGGAGAUUUUUUCCUCGAGCAA [C27G A60C]
CUCUCGGUAGCCAAGUUGGUUUAAGGGGCAAGACUUUAAUUUAUCACUACGAAAUCUUGCGAUAGGGCGUUCGACUCGCCCCCGGGAGAUUUUUUCCUCGAGCAA [C27G A60C C64A]
CUCUCGGUAGCCAAGUUGGUUUAAGGGGCAAGACUUUAAUUUAUCACUACGAAAUCUUGAGAUCGGGCGUUCGACUCGCCCCCGGGAGGUUUUUUCCUCGAGCAA [C27G A89G]
CUCUCGGUAGCCAAGUUGGUUUAAGGGGAAAGACUUUAAUUUAUCACUACGAAAUAUUGAGAUCGGGCGUUCGACUCGCCCCCGGGAGAUUUUUUCCUCGAGCAA [C27G C29A C56A]
CUCUCGGUAGCCAAGUUGGUUUAAGGGGGAAGUCUUUAAUUUAUCACUACGAAAUCUUGAGAUCGGGCGUUCGACUCGCCCCCGGGAGAUUUUUUCCUCGAGCAA [C27G C29G A33U]
CUCUCGGUAGCCAAGUUGGUUUAAGGGGUAAGACUUUAAUUUAUCACUACGAAAUCUUGAGAUCGGGCGUUCGACUCGCCCCCGGGAGAUUUUUUCCUCGAGCAA [C27G C29U]
CUCUCGGUAGCCAAGUUGGUUUAAGGGGCAAGAAUUUAAUUUAUCACUACGAAAUCUUGAGAUCGGGCGUUCGACUCGCCCCCGGGAGAUUUUUUCCUCGAGCAA [C27G C34A]
CUCUCGGUAGCCAAGUUGGUUUAAGGGGCAAGAGUUUAAUUUAUCACUACGAAAUCUUGAGAUCUGGCGUUCGACUCGCCCCCGGGAGGUUUUUUCCUCGAGCAA [C27G C34G G65U A89G]
CUCUCGGUAGCCAAGUUGGUUUAAGGGGCAAGACUUUAAUUUAUCACUACGAAAUAUUGAGAUCGGGCGUUCGACUCGCCCCCGGGAGAUUUUUUCCUCGAGCAA [C27G C56A]
CUCUCGGUAGCCAAGUUGGUUUAAGGGGCAAGACUUUAAUUUAUCACUACGAAAUAUUGAGAUCGGGCGUUCGACUCGACCCAGGGAGAUUUUUUCCUCGAGCAA [C27G C56A C79A C83A]
CUCUCGGUAGCCAAGUUGGUUUAAGGGGCAAGACUUUAAUUUAUCACUACGAAAUCUUGAGAUAGCGCGUUCGACUCGCCCCCGGGAGAUUUUUUCCUCGAGCAA [C27G C64A G66C]
CUCUCGGUAGCCAAGUUGGUUUAAGGGGCAAGACUUUAAUUUAUCACUACGAAAUCUUGAGAUCGGGUGUUCGACUCGCCCCCGGGAGAUUUUUUCCUCGAGCAA [C27G C68U]
CUCUCGGUAGCCAAGUUGGUUUAAGGGGCAAGACUUUAAUUUAUCACUACGAAAUCUUGAGAUCGGGCGUUCGAAUCGCCCCCGGGAGAUUUUUUCCUCGAGCAA [C27G C75A]
CUCUCGGUAGCCAAGUUGGUUUAAGGGGCAAGACUUUAAUUUAUCACUACGAAAUCUUGAGAUCGGGCGUUCGACUUGCCCCCGGGAGAUUUUUUCCUCGAGCAA [C27G C77U]
CUCUCGGUAGCCAAGUUGGUUUAAGGGGCAAGACUUUAAUUUAUCACUACGAAAUCUUGAGAUCGGGCGUUCGACUCGGCCCCGGGAGAUUUUUUCCUCGAGCAA [C27G C79G]
CUCUCGGUAGCCAAGUUGGUUUAAGGGGCAAGACUUUAAUUUAUCACUACGAAAUCUUGAGAUCGGGCGUUCGACUCGCGCCCGGGAGAUUUUUUCCUCGAGCAA [C27G C80G]
CUCUCGGUAGCCAAGUUGGUUUAAGGGGCAAGACUUUAAUUUAUCACUACGAAAUCUUGAGAUCGGGCGUUCGACUCGCUCCAGGGAGAUUUUUUCCUCGAGCAA [C27G C80U C83A]
CUCUCGGUAGCCAAGUUGGUUUAAGGGGCAAGACUUUAAUUUAUCACUACGAAAUCUUGAGAUCGGGCGUUCGACUCGCCCGCCGGAGAUUUUUUCCUCGAGCAA [C27G C82G G84C]
CUCUCGGUAGCCAAGUUGGUUUAAGGGACAAGACUUUAAUUUAUCACUACGAAAUCUUGAGAUCGGGCGUUCGACUCGCCCCCGGGAGAUUUUUUCCUCGAGCAA [C27G G28A]
CUCUCGGUAGCCAAGUUGGUUUAAGGGUCAAGACUUUAAUUUAUCACUACGAAAUCUUGAGAUCGGGCGUUCGACUCUCCCCCGGGAGAUUUUUUCCUCGAGCAA [C27G G28U G78U]
CUCUCGGUAGCCAAGUUGGUUUAAGGGGCAAUACUUUAAUUUAUCACUACGAAAUCUUGAGAUCGGGCGUUCGACUCGCCCCCGGGAGAUUUUUUCCUCGAGCAA [C27G G32U]
CUCUCGGUAGCCAAGUUGGUUUAAGGGGCAAUACUUUAAUUUAUCACUACGAAAUCUUGAGAUCGGGCGUUCGAAUCGCCGCCGGGACAUUUUUUCCUCGAGCAA [C27G G32U C75A C81G G88C]
CUCUCGGUAGCCAAGUUGGUUUAAGGGGCAAGACUUUAAUUUAUCACUACGAAAUCUUGAUAUCGGGCGUUCGACUCGCCCCCGGGAGAUUUUUUCCUCGAGCAA [C27G G61U]
CUCUCGGUAGCCAAGUUGGUUUAAGGGGCAAGACUUUAAUUUAUCACUACGAAAUCUUGAUAUCGGGCGUUCGACUCGCUCCCGGGAGAUUUUUUCCUCGAGCAA [C27G G61U C80U]
CUCUCGGUAGCCAAGUUGGUUUAAGGGGCAAGACUUUAAUUUAUCACUACGAAAUCUUGAGAUCCGGCGUUCGACUCGCCCCCGGGAGAUUUUUUCCUCGAGCAA [C27G G65C]
CUCUCGGUAGCCAAGUUGGUUUAAGGGGCAAGACUUUAAUUUAUCACUACGAAAUCUUGAGAUCCGGCGUUCGACUCGCCCCCGGCAGAUUUUUUCCUCGAGCAA [C27G G65C G86C]
CUCUCGGUAGCCAAGUUGGUUUAAGGGGCAAGACUUUAAUUUAUCACUACGAAAUCUUGAGAUCUGGCGUUCGACUCGCCCCCGGGAGAUUUUUUCCUCGAGCAA [C27G G65U]
CUCUCGGUAGCCAAGUUGGUUUAAGGGGCAAGACUUUAAUUUAUCACUACGAAAUCUUGAGAUCGGGCGUUCCACUCGCCCCCGGGAGAUUUUUUCCUCGAGCAA [C27G G73C]
CUCUCGGUAGCCAAGUUGGUUUAAGGGGCAAGACUUUAAUUUAUCACUACGAAAUCUUGAGAUCGGGCGUUCGACUCACCCCCGGGAGAUUUUUUCCUCGAGCAA [C27G G78A]
CUCUCGGUAGCCAAGUUGGUUUAAGGGGCAAGACUUUAAUUUAUCACUACGAAAUCUUGAGAUCGGGCGUUCGACUCCCCCCUGGGAGAUUUUUUCCUCGAGCAA [C27G G78C C83U]
CUCUCGGUAGCCAAGUUGGUUUAAGGGGCAAGACUUUAAUUUAUCACUACGAAAUCUUGAGAUCGGGCGUUCGACUCGCCCCCGCGAGAUUUUUUCCUCGAGCAA [C27G G85C]
CUCUCGGUAGCCAAGUUGGUUUAAGGGGCAAGACUUUAAUUUAUCACUACGAAAUCUUGAGAUCGGGCGUUCGACUCGCCCCCGGGAAAUUUUUUCCUCGAGCAA [C27G G88A]
CUCUCGGUAGCCAAGUUGGUUUAAGGGGCAAGACGUUAAUUUAUCACUACGAAAUCUUGAGAUCGGGCGUUCGACUCGCCCCCGGGAGAUUUUUUCCUCGAGCAA [C27G U35G]
CUCUCGGUAGCCAAGUUGGUUUAAGGGGCAAGACGUUAAUUUAUCACUACGAAAUCUUGAGAUAGGGCGUUCGACUCGCCCUCGGGAGAUUUUUUCCUCGAGCAA [C27G U35G C64A C82U]
CUCUCGGUAGCCAAGUUGGUUUAAGGGGCAAGACGUUAAUUUAUCACUACGAAAUCUUGAUAUCGGGCGAUCGACUCGCCCCCGGGAGAUUUUUUCCUCGAGCAA [C27G U35G G61U U70A]
CUCUCGGUAGCCAAGUUGGUUUAAGGGGCAAGACUUUAAUUUAUCACUACGAAAACUUGAGAUCGGGCCUUCGACUCGCCCCCGGGAGAUUUUUUCCUCGAGCAA [C27G U55A G69C]
CUCUCGGUAGCCAAGUUGGUUUAAGGGGCAAGACUUUAAUUUAUCACUACGAAACCUUGAGGUCGGGCGUUCGACUCGCCCCCGGGAGAUUUUUUCCUCGAGCAA [C27G U55C A62G]
CUCUCGGUAGCCAAGUUGGUUUAAGGGGCAAGACUUUAAUUUAUCACUACGAAAUCAUGAGAUCGGGCGUUCGACUCGCCCCCGGGAGAUUUUUUCCUCGAGCAA [C27G U57A]
CUCUCGGUAGCCAAGUUGGUUUAAGGGGCAAGACUUUAAUUUAUCACUACGAAAUCAUGAGAUCGGGCGUUCGACUCGCCCCCUGGAGAUUUUUUCCUCGAGCAA [C27G U57A G84U]
CUCUCGGUAGCCAAGUUGGUUUAAGGGGCAAGACUUUAAUUUAUCACUACGAAAUCCUGAGAUCGGGCGUUCCACUCGCCCCCGGGAGAUUUUUUCCUCGAGCAA [C27G U57C G73C]
CUCUCGGUAGCCAAGUUGGUUUAAGGGGCAAGACUUUAAUUUAUCACUACGAAAUCCGGAGAUCGAGGGUUCGACUCGCCCCCGGGAGAUUUUUUCCUCGAGCAA [C27G U57C U58G G66A C68G]
CUCUCGGUAGCCAAGUUGGUUUAAGGGGCAAGACUUUAAUUUAUCACUACGAAAUCGUGAGAUCGGGAGUUCGACUCGCCCCCGGGAGAUUUUUUCCUCGAGCAA [C27G U57G C68A]
CUCUCGGUAGCCAAGUUGGUUUAAGGGGCAAGACUUUAAUUUAUCACUACGAAAUCUUGAGACCGGGCGUCCGACUCGCCCCCGGGAGAUUUUUUCCUCGAGCAA [C27G U63C U71C]
CUCUCGGUAGCCAAGUUGGUUUAAGGGGCAAGACUUUAAUUUAUCACUACGAAAUCUUGAGAUCGGGCGUACGACUCGCCCCCGGGAGAUUUUUUCCUCGAGCAA [C27G U71A]
CUCUCGGUAGCCAAGUUGGUUUAAGGUGCCAGACUUUAAUUUAUCACUACGAAAUCUUGAGAUCGGGCGUUCGACUCGCCCCCGGGAGAUUUUUUCCUCGAGCAA [C27U A30C]
CUCUCGGUAGCCAAGUUGGUUUAAGGUGCGAGACUUUAAUUUAUCACUACGAAAUCUUGAGAUCGGGCGUUCGACUCGCCCCCGGGAGAUUUUUUCCUCGAGCAA [C27U A30G]
